# Data from the supplement of paper PMC8728848.
# This is one part of the list.
# Legend:
# Assay in all cases: glycan array binding signal (z-score within array); higher = stronger binding
# Settings in all cases: glycan notation: IUPAC condensed, linker removed
# [1] = target: Gal(b1-4)GlcNAc(b1-3)Gal(b1-4)GlcNAc(b1-2)[Gal(b1-4)GlcNAc(b1-3)Gal(b1-4)GlcNAc(b1-6)]Man(a1-6)[Gal(b1-4)GlcNAc(b1-3)Gal(b1-4)GlcNAc(b1-2)Man(a1-3)]Man(b1-4)GlcNAc(b1-4)GlcNAc
# Method in brief: (§1)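 The binding signal is a Z-score computed within each array and averaged over linkers. Arrays of the same protein sequence at different concentrations or buffers were also averaged together. Data originate from 3228 arrays in the Consortium for Functional Glycomics database, kept only where the protein sequence was available.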
# [2] = target: Gal(b1-4)GlcNAc(b1-3)Gal(b1-4)GlcNAc(b1-2)[Gal(b1-4)GlcNAc(b1-3)Gal(b1-4)GlcNAc(b1-6)]Man(a1-6)[Gal(b1-4)GlcNAc(b1-3)Gal(b1-4)GlcNAc(b1-2)Man(a1-3)]Man(b1-4)GlcNAc(b1-4)[Fuc(a1-6)]GlcNAc
# Method in brief: as §1
# [3] = target: Gal(b1-4)GlcNAc(b1-3)Gal(b1-4)GlcNAc(b1-3)Gal(b1-4)GlcNAc
# Method in brief: as §1
# [4] = target: Gal(b1-4)GlcNAc(b1-3)Gal(b1-4)GlcNAc(b1-3)Gal(b1-4)GlcNAc(b1-2)Man(a1-3)[Gal(b1-4)GlcNAc(b1-3)Gal(b1-4)GlcNAc(b1-3)Gal(b1-4)GlcNAc(b1-2)Man(a1-6)]Man(b1-4)GlcNAc(b1-4)GlcNAc
# Method in brief: as §1
# [5] = target: Gal(b1-4)GlcNAc(b1-3)Gal(b1-4)GlcNAc(b1-3)Gal(b1-4)GlcNAc(b1-2)Man(a1-3)[Gal(b1-4)GlcNAc(b1-3)Gal(b1-4)GlcNAc(b1-3)Gal(b1-4)GlcNAc(b1-2)Man(a1-6)]Man(b1-4)GlcNAc(b1-4)[Fuc(a1-6)]GlcNAc
# Method in brief: as §1
# [6] = target: Gal(b1-4)GlcNAc(b1-3)Gal(b1-4)GlcNAc(b1-3)Gal(b1-4)GlcNAc(b1-2)[Gal(b1-4)GlcNAc(b1-3)Gal(b1-4)GlcNAc(b1-3)Gal(b1-4)GlcNAc(b1-6)]Man(a1-6)[Gal(b1-4)GlcNAc(b1-3)Gal(b1-4)GlcNAc(b1-3)Gal(b1-4)GlcNAc(b1-2)Man(a1-3)]Man(b1-4)GlcNAc(b1-4)[Fuc(a1-6)]GlcNAc
# Method in brief: as §1
# [7] = target: Gal(b1-4)GlcNAc(b1-3)Gal(b1-4)GlcNAc(b1-3)Gal(b1-4)GlcNAc(b1-3)Gal(b1-4)GlcNAc(b1-2)Man(a1-3)[Gal(b1-4)GlcNAc(b1-3)Gal(b1-4)GlcNAc(b1-3)Gal(b1-4)GlcNAc(b1-3)Gal(b1-4)GlcNAc(b1-2)Man(a1-6)]Man(b1-4)GlcNAc(b1-4)GlcNAc
# Method in brief: as §1
# [8] = target: Gal(b1-4)GlcNAc(b1-3)Gal(b1-4)GlcNAc(b1-3)Gal(b1-4)GlcNAc(b1-3)Gal(b1-4)GlcNAc(b1-2)Man(a1-3)[Gal(b1-4)GlcNAc(b1-3)Gal(b1-4)GlcNAc(b1-3)Gal(b1-4)GlcNAc(b1-3)Gal(b1-4)GlcNAc(b1-2)Man(a1-6)]Man(b1-4)GlcNAc(b1-4)[Fuc(a1-6)]GlcNAc
# Method in brief: as §1
# [9] = target: Gal(b1-4)GlcNAc(b1-3)Gal(b1-4)GlcNAc(b1-3)Gal(b1-4)GlcNAc(b1-3)Gal(b1-4)GlcNAc(b1-2)[Gal(b1-4)GlcNAc(b1-3)Gal(b1-4)GlcNAc(b1-3)Gal(b1-4)GlcNAc(b1-3)Gal(b1-4)GlcNAc(b1-6)]Man(a1-6)[Gal(b1-4)GlcNAc(b1-3)Gal(b1-4)GlcNAc(b1-3)Gal(b1-4)GlcNAc(b1-3)Gal(b1-4)GlcNAc(b1-2)Man(a1-3)]Man(b1-4)GlcNAc(b1-4)[Fuc(a1-6)]GlcNAc
# Method in brief: as §1
# [10] = target: Gal(b1-4)GlcNAc(b1-3)Gal(b1-4)GlcNAc(b1-3)Gal(b1-4)GlcNAc(b1-3)Gal(b1-4)GlcNAc(b1-3)Gal(b1-4)GlcNAc(b1-2)Man(a1-3)[Gal(b1-4)GlcNAc(b1-3)Gal(b1-4)GlcNAc(b1-3)Gal(b1-4)GlcNAc(b1-3)Gal(b1-4)GlcNAc(b1-3)Gal(b1-4)GlcNAc(b1-2)Man(a1-6)]Man(b1-4)GlcNAc(b1-4)GlcNAc
# Method in brief: as §1
# [11] = target: Gal(b1-4)GlcNAc(b1-3)Gal(b1-4)GlcNAc(b1-3)Gal(b1-4)GlcNAc(b1-3)Gal(b1-4)GlcNAc(b1-3)Gal(b1-4)GlcNAc(b1-2)Man(a1-3)[Gal(b1-4)GlcNAc(b1-3)Gal(b1-4)GlcNAc(b1-3)Gal(b1-4)GlcNAc(b1-3)Gal(b1-4)GlcNAc(b1-3)Gal(b1-4)GlcNAc(b1-2)Man(a1-6)]Man(b1-4)GlcNAc(b1-4)[Fuc(a1-6)]GlcNAc
# Method in brief: as §1
# [12] = target: Gal(b1-4)GlcNAc(b1-3)Gal(b1-4)GlcNAc(b1-3)Gal(b1-4)GlcNAc(b1-3)Gal(b1-4)GlcNAc(b1-3)Gal(b1-4)GlcNAc(b1-2)[Gal(b1-4)GlcNAc(b1-3)Gal(b1-4)GlcNAc(b1-3)Gal(b1-4)GlcNAc(b1-3)Gal(b1-4)GlcNAc(b1-3)Gal(b1-4)GlcNAc(b1-6)]Man(a1-6)[Gal(b1-4)GlcNAc(b1-3)Gal(b1-4)GlcNAc(b1-3)Gal(b1-4)GlcNAc(b1-3)Gal(b1-4)GlcNAc(b1-3)Gal(b1-4)GlcNAc(b1-2)Man(a1-3)]Man(b1-4)GlcNAc(b1-4)[Fuc(a1-6)]GlcNAc
# Method in brief: as §1
# [13] = target: Gal(b1-4)GlcNAc(b1-3)Gal(b1-4)GlcNAc(b1-3)Gal(b1-4)GlcNAc(b1-3)Gal(b1-4)GlcNAc(b1-3)Gal(b1-4)GlcNAc(b1-3)Gal(b1-4)GlcNAc(b1-2)Man(a1-3)[Gal(b1-4)GlcNAc(b1-3)Gal(b1-4)GlcNAc(b1-3)Gal(b1-4)GlcNAc(b1-3)Gal(b1-4)GlcNAc(b1-3)Gal(b1-4)GlcNAc(b1-3)Gal(b1-4)GlcNAc(b1-2)Man(a1-6)]Man(b1-4)GlcNAc(b1-4)GlcNAc
# Method in brief: as §1
# [14] = target: Gal(b1-4)GlcNAc(b1-3)Gal(b1-4)GlcNAc(b1-3)GalNAc
# Method in brief: as §1
# [15] = target: Gal(b1-4)GlcNAc(b1-3)Gal(b1-4)GlcNAc(b1-3)[Gal(b1-4)GlcNAc(b1-3)Gal(b1-4)GlcNAc(b1-6)]GalNAc
# Method in brief: as §1
# [16] = target: Gal(b1-4)GlcNAc(b1-3)Gal(b1-4)GlcNAc(b1-6)[Gal(b1-3)]GalNAc
# Method in brief: as §1
# [17] = target: Gal(b1-4)GlcNAc(b1-3)Gal(b1-4)[Fuc(a1-3)]GlcNAc(b1-3)Gal(b1-4)[Fuc(a1-3)]GlcNAc
# Method in brief: as §1
# [18] = target: Gal(b1-4)GlcNAc(b1-3)GalNAc
# Method in brief: as §1
# [19] = target: Gal(b1-4)GlcNAc(b1-3)[Fuc(a1-3)GlcNAc(b1-6)]Gal(b1-4)Glc
# Method in brief: as §1
# [20] = target: Gal(b1-4)GlcNAc(b1-3)[Gal(b1-4)GlcNAc(b1-6)]Gal(b1-4)GlcNAc
# Method in brief: as §1
# [21] = target: Gal(b1-4)GlcNAc(b1-3)[GlcNAc(b1-6)]Gal(b1-4)GlcNAc
# Method in brief: as §1
# [22] = target: Gal(b1-4)GlcNAc(b1-6)Gal(b1-4)GlcNAc
# Method in brief: as §1
# [23] = target: Gal(b1-4)GlcNAc(b1-6)GalNAc
# Method in brief: as §1
# [24] = target: Gal(b1-4)GlcNAc(b1-6)[Gal(b1-3)]GalNAc
# Method in brief: as §1
# [25] = target: Gal(b1-4)GlcNAc(b1-6)[Gal(b1-4)GlcNAc(b1-3)]GalNAc
# Method in brief: as §1
# Gal(b1-4)GlcNAc6P = target: Gal(b1-4)GlcNAc6P
# Method in brief: as §1
# Gal(b1-6)Gal = target: Gal(b1-6)Gal
# Method in brief: as §1
# Gal3S(b1-3)GalNAc = target: Gal3S(b1-3)GalNAc
# Method in brief: as §1
# Gal3S(b1-3)GlcNAc = target: Gal3S(b1-3)GlcNAc
# Method in brief: as §1
# [26] = target: Gal3S(b1-3)[Fuc(a1-4)]GlcNAc
# Method in brief: as §1
# Gal3S(b1-4)Glc = target: Gal3S(b1-4)Glc
# Method in brief: as §1
# Gal3S(b1-4)Glc6S = target: Gal3S(b1-4)Glc6S
# Method in brief: as §1
# Gal3S(b1-4)GlcNAc = target: Gal3S(b1-4)GlcNAc
# Method in brief: as §1
# [27] = target: Gal3S(b1-4)[Fuc(a1-3)]Glc6S
# Method in brief: as §1
# [28] = target: Gal3S(b1-4)[Fuc(a1-3)]GlcNAc
# Method in brief: as §1
# [29] = target: Gal3S(b1-4)[Fuc(a1-3)]GlcNAc6S
# Method in brief: as §1
# Gal3S4S(b1-4)GlcNAc = target: Gal3S4S(b1-4)GlcNAc
# Method in brief: as §1
# Gal3S6S(b1-4)GlcNAc = target: Gal3S6S(b1-4)GlcNAc
# Method in brief: as §1
# Gal3S6S(b1-4)GlcNAc6S = target: Gal3S6S(b1-4)GlcNAc6S
# Method in brief: as §1
# Gal4S(b1-4)GlcNAc = target: Gal4S(b1-4)GlcNAc
# Method in brief: as §1
# Gal4S6S(b1-4)GlcNAc = target: Gal4S6S(b1-4)GlcNAc
# Method in brief: as §1
# Gal6P(b1-4)GlcNAc = target: Gal6P(b1-4)GlcNAc
# Method in brief: as §1
# Gal6S(b1-3)GlcNAc = target: Gal6S(b1-3)GlcNAc
# Method in brief: as §1
# Gal6S(b1-3)GlcNAc6S = target: Gal6S(b1-3)GlcNAc6S
# Method in brief: as §1
# Gal6S(b1-4)Glc = target: Gal6S(b1-4)Glc
# Method in brief: as §1
binder,measurement,setting,value
TIM1 (protein) ADGIQSVKVGGEAGPSVTLPCHYSGAVTSMCWNRGSCSLFTCQNGIVWTNGTHVTYRKDTRYKLLGDLSRRDVSLTIENTAVSDSGVYCCRVEHRGWFNDMKITVSLEIVPPHHHHHH,glycan array binding signal (z-score),[1],1.76
same,glycan array binding signal (z-score),[2],0.621
same,glycan array binding signal (z-score),[3],-0.231
same,glycan array binding signal (z-score),[4],3.39
same,glycan array binding signal (z-score),[5],0.165
same,glycan array binding signal (z-score),[6],0.754
same,glycan array binding signal (z-score),[7],0.208
same,glycan array binding signal (z-score),[8],0.223
same,glycan array binding signal (z-score),[9],0.21
same,glycan array binding signal (z-score),[10],0.004
same,glycan array binding signal (z-score),[11],-0.05
same,glycan array binding signal (z-score),[12],0.517
same,glycan array binding signal (z-score),[13],0.132
same,glycan array binding signal (z-score),[14],1.09
same,glycan array binding signal (z-score),[15],2.45
same,glycan array binding signal (z-score),[16],1.56
same,glycan array binding signal (z-score),[17],-0.141
same,glycan array binding signal (z-score),[18],-0.245
same,glycan array binding signal (z-score),[19],-0.247
same,glycan array binding signal (z-score),[20],-0.227
same,glycan array binding signal (z-score),[21],-0.243
same,glycan array binding signal (z-score),[22],-0.165
same,glycan array binding signal (z-score),[23],-0.189
same,glycan array binding signal (z-score),[24],-0.151
same,glycan array binding signal (z-score),[25],-0.201
same,glycan array binding signal (z-score),Gal(b1-4)GlcNAc6P,-0.164
same,glycan array binding signal (z-score),Gal(b1-6)Gal,-0.119
same,glycan array binding signal (z-score),Gal3S(b1-3)GalNAc,-0.267
same,glycan array binding signal (z-score),Gal3S(b1-3)GlcNAc,-0.171
same,glycan array binding signal (z-score),[26],-0.15
same,glycan array binding signal (z-score),Gal3S(b1-4)Glc,-0.226
same,glycan array binding signal (z-score),Gal3S(b1-4)Glc6S,0.03
same,glycan array binding signal (z-score),Gal3S(b1-4)GlcNAc,-0.14
same,glycan array binding signal (z-score),[27],0.162
same,glycan array binding signal (z-score),[28],-0.14
same,glycan array binding signal (z-score),[29],0.005
same,glycan array binding signal (z-score),Gal3S4S(b1-4)GlcNAc,-0.039
same,glycan array binding signal (z-score),Gal3S6S(b1-4)GlcNAc,-0.116
same,glycan array binding signal (z-score),Gal3S6S(b1-4)GlcNAc6S,0.264
same,glycan array binding signal (z-score),Gal4S(b1-4)GlcNAc,-0.215
same,glycan array binding signal (z-score),Gal4S6S(b1-4)GlcNAc,-0.147
same,glycan array binding signal (z-score),Gal6P(b1-4)GlcNAc,-0.296
same,glycan array binding signal (z-score),Gal6S(b1-3)GlcNAc,-0.093
same,glycan array binding signal (z-score),Gal6S(b1-3)GlcNAc6S,-0.043
same,glycan array binding signal (z-score),Gal6S(b1-4)Glc,-0.076
